{"source": "paper PMC9173704", "about": "“Relationships Between Plasminogen-Binding M-Protein and Surface Enolase for Human Plasminogen Acquisition and Activation in Streptococcus pyogenes” (Frontiers in Microbiology, 2022)", "proteins": {"B1": {"name": "recombinant human enolase (hEno) (enzyme)", "chain": "not shown", "notes": "human enolase (heno gene, NCBI NM_001428.5) amplified from human liver cDNA, nt 1 to nt 1308 of the reading frame, called full-length; Dimer by SEC-MALS and AUC"}}, "target": "the molecule itself", "test": "SEC-MALS; each protein 100 μl of 1 mg/ml on a WTC-030S5 column, PBS, pH 7.4, flow rate 0.5 ml/min"}
{"protein": "B1", "values": [{"measurement": "stoichiometry N", "value": 2}]}
